Results are given in words; binding and its absence hold for the method and conditions named. In cells and extracts the contact can be indirect. Some entries that bind do so weakly or less than the wild type. For part of these data: Sequences can lack the tags named with a protein.

Sequences of proteins named here, by UniProt entry; tags and fusion partners are left off. A change or cut given only in a name is not applied to a line headed by its entry.
UniProt Q8BGW1: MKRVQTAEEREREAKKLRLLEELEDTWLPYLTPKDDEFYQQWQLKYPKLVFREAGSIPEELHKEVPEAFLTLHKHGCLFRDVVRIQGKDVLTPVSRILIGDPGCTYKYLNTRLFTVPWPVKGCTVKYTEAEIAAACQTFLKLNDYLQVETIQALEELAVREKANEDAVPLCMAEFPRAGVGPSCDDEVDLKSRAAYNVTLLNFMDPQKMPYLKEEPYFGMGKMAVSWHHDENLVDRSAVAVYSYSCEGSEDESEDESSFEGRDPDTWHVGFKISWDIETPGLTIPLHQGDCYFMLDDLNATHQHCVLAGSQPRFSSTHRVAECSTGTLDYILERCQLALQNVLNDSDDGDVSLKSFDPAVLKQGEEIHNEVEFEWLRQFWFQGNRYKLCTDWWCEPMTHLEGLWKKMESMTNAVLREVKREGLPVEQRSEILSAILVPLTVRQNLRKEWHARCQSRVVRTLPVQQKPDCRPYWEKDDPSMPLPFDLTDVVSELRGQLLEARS
UniProt P19474: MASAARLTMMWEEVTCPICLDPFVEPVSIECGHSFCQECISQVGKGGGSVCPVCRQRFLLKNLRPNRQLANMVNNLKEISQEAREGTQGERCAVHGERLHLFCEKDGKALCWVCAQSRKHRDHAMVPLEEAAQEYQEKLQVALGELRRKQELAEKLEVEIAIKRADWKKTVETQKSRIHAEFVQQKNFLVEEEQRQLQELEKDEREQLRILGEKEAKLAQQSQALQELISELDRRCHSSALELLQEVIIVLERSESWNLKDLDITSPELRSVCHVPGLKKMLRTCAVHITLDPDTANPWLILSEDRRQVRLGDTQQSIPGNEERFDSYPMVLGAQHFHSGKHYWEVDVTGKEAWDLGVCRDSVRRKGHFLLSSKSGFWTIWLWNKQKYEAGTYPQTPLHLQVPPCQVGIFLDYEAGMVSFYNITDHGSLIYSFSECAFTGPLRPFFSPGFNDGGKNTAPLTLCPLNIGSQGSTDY

The target in test [1] is Flag-FTO, full length, wild type (HEK293T) (mouse) (UniProt Q8BGW1). The experiment in a line: co-IP; HEK293T transfected with Flag-Fto constructs for 48 h (with HA-K48 and Myc-Ogt WT or K908A in Figure 6I); IP with anti-Flag; immunoblot for OGT or TRIM21 for which the legend names no plasmid. For orientation: A western blot detects proteins with antibodies after separation by electrophoresis.

The target of test [2] is fat mass and obesity-associated protein (FTO), endogenous in BMDMs (mouse (endogenous in BMDMs)) (UniProt Q8BGW1). The experiment in a line: co-IP; endogenous proteins in BMDM lysates (RIPA buffer with PMSF); antibody (anti-FTO, or in reverse anti-OGT or anti-TRIM21) plus protein-A/G magnetic beads; immunoblot; cells unstimulated or treated with LPS.
A further test concerns the target Flag-FTO (S226A) (mouse) (UniProt Q8BGW1). Kind of test: co-IP; HEK293T transfected with Flag-Fto constructs for 48 h (with HA-K48 and Myc-Ogt WT or K908A in Figure 6I); IP with anti-Flag; immunoblot for OGT or TRIM21 for which the legend names no plasmid.
A further test deals with Flag-FTO (S237A) (mouse) (UniProt Q8BGW1). The test is described as above.
A further test has as its target Flag-FTO (T92A) (mouse) (UniProt Q8BGW1). The test is described as above.
Test [3] has as its target Flag-FTO (S95A) (mouse) (UniProt Q8BGW1). Described as above.
The target of test [4] is Flag-FTO, full length, wild type (HEK293T) (mouse) (UniProt Q8BGW1). The test is described as above. This is another data set of the same source.
The target is the same in test [5]. The experiment in a line: co-IP; HEK293T co-transfected with Flag-Fto constructs and Myc-tagged partner (Myc-Ogt constructs or Myc-Trim21; HA-K48 in Figure 6J) for 48 h; RIPA lysate; IP with anti-Flag, immunoblot against Myc and Flag.
In test [6] the target is Flag-FTO, full length, wild type (RAW264.7) (mouse) (UniProt Q8BGW1). Kind of test: co-IP; RAW264.7 transfected with Flag-Fto and HA-K48 for 48 h, then TMG or OSMI-1 for 24 h; Co-IP and immunoblot.
Test [7] deals with Flag-FTO (S95A) (mouse) (UniProt Q8BGW1). The experiment in a line: co-IP; HEK293T co-transfected with Flag-Fto constructs and Myc-tagged partner (Myc-Ogt constructs or Myc-Trim21; HA-K48 in Figure 6J) for 48 h; RIPA lysate; IP with anti-Flag, immunoblot against Myc and Flag.

Regarding “TRIM21 in HEK293T cells transfected with Flag-Fto, HA-K48 and Myc-Ogt (from UniProt P19474 1-475) (enzyme)”, in test [1], the binding result is “binds”.

B1: O-GlcNAc transferase (OGT), endogenous in BMDMs (enzyme, UniProt Q8CGY8 1-1046)
chain: MASSVGNVADSTEPTKRMLSFQGLAELAHREYQAGDFEAAERHCMQLWRQEPDNTGVLLLLSSIHFQCRRLDRSAHFSTLAIKQNPLLAEAYSNLGNVYKERGQLQEAIEHYRHALRLKPDFIDGYINLAAALVAAGDMEGAVQAYVSALQYNPDLYCVRSDLGNLLKALGRLEEAKACYLKAIETQPNFAVAWSNLGCVFNAQGEIWLAIHHFEKAVTLDPNFLDAYINLGNVLKEARIFDRAVAAYLRALSLSPNHAVVHGNLACVYYEQGLIDLAIDTYRRAIELQPHFPDAYCNLANALKEKGSVAEAEDCYNTALRLCPTHADSLNNLANIKREQGNIEEAVRLYRKALEVFPEFAAAHSNLASVLQQQGKLQEALMHYKEAIRISPTFADAYSNMGNTLKEMQDVQGALQCYTRAIQINPAFADAHSNLASIHKDSGNIPEAIASYRTALKLKPDFPDAYCNLAHCLQIVCDWTDYDERMKKLVSIVAEQLEKNRLPSVHPHHSMLYPLSHGFRKAIAERHGNLCLDKINVLHKPPYEHPKDLKLSDGRLRVGYVSSDFGNHPTSHLMQSIPGMHNPDKFEVFCYALSPDDGTNFRVKVMAEANHFIDLSQIPCNGKAADRIHQDGIHILVNMNGYTKGARNELFALRPAPIQAMWLGYPGTSGALFMDYIITDQETSPAEVAEQYSEKLAYMPHTFFIGDHANMFPHLKKKAVIDFKSNGHIYDNRIVLNGIDLKAFLDSLPDVKIVKMKCPDGGDNPDSSNTALNMPVIPMNTIAEAVIEMINRGQIQITINGFSISNGLATTQINNKAATGEEVPRTIIVTTRSQYGLPEDAIVYCNFNQLYKIDPSTLQMWANILKRVPNSVLWLLRFPAVGEPNIQQYAQNMGLPQNRIIFSPVAPKEEHVRRGQLADVCLDTPLCNGHTTGMDVLWAGTPMVTMPGETLASRVAASQLTCLGCLELIAKSRQEYEDIAVKLGTDLEYLKKIRGKVWKQRISSPLFNTKQYTMELERLYLQMWEHYAAGNKPDHMIKPVEVTESA
Regarding B1, the binding entry in test [2] is “binds weakly”.

B2: OGT detected with anti-OGT in HEK293T cells transfected with Flag-Fto constructs only (enzyme, UniProt O15294 1-1046)
chain: MASSVGNVADSTEPTKRMLSFQGLAELAHREYQAGDFEAAERHCMQLWRQEPDNTGVLLLLSSIHFQCRRLDRSAHFSTLAIKQNPLLAEAYSNLGNVYKERGQLQEAIEHYRHALRLKPDFIDGYINLAAALVAAGDMEGAVQAYVSALQYNPDLYCVRSDLGNLLKALGRLEEAKACYLKAIETQPNFAVAWSNLGCVFNAQGEIWLAIHHFEKAVTLDPNFLDAYINLGNVLKEARIFDRAVAAYLRALSLSPNHAVVHGNLACVYYEQGLIDLAIDTYRRAIELQPHFPDAYCNLANALKEKGSVAEAEDCYNTALRLCPTHADSLNNLANIKREQGNIEEAVRLYRKALEVFPEFAAAHSNLASVLQQQGKLQEALMHYKEAIRISPTFADAYSNMGNTLKEMQDVQGALQCYTRAIQINPAFADAHSNLASIHKDSGNIPEAIASYRTALKLKPDFPDAYCNLAHCLQIVCDWTDYDERMKKLVSIVADQLEKNRLPSVHPHHSMLYPLSHGFRKAIAERHGNLCLDKINVLHKPPYEHPKDLKLSDGRLRVGYVSSDFGNHPTSHLMQSIPGMHNPDKFEVFCYALSPDDGTNFRVKVMAEANHFIDLSQIPCNGKAADRIHQDGIHILVNMNGYTKGARNELFALRPAPIQAMWLGYPGTSGALFMDYIITDQETSPAEVAEQYSEKLAYMPHTFFIGDHANMFPHLKKKAVIDFKSNGHIYDNRIVLNGIDLKAFLDSLPDVKIVKMKCPDGGDNADSSNTALNMPVIPMNTIAEAVIEMINRGQIQITINGFSISNGLATTQINNKAATGEEVPRTIIVTTRSQYGLPEDAIVYCNFNQLYKIDPSTLQMWANILKRVPNSVLWLLRFPAVGEPNIQQYAQNMGLPQNRIIFSPVAPKEEHVRRGQLADVCLDTPLCNGHTTGMDVLWAGTPMVTMPGETLASRVAASQLTCLGCLELIAKNRQEYEDIAVKLGTDLEYLKKVRGKVWKQRISSPLFNTKQYTMELERLYLQMWEHYAAGNKPDHMIKPVEVTESA
On to B2, for which the binding result (in the test with Flag-FTO (S226A) (mouse); in the test with Flag-FTO (S237A) (mouse); with Flag-FTO (T92A) (mouse); with Flag-FTO (S95A) (mouse) [3]; in test [4]) was “binds” throughout.

B3: Myc-OGT, full length, wild type (HEK293T) (enzyme, UniProt Q8CGY8 1-1046)
chain: MASSVGNVADSTEPTKRMLSFQGLAELAHREYQAGDFEAAERHCMQLWRQEPDNTGVLLLLSSIHFQCRRLDRSAHFSTLAIKQNPLLAEAYSNLGNVYKERGQLQEAIEHYRHALRLKPDFIDGYINLAAALVAAGDMEGAVQAYVSALQYNPDLYCVRSDLGNLLKALGRLEEAKACYLKAIETQPNFAVAWSNLGCVFNAQGEIWLAIHHFEKAVTLDPNFLDAYINLGNVLKEARIFDRAVAAYLRALSLSPNHAVVHGNLACVYYEQGLIDLAIDTYRRAIELQPHFPDAYCNLANALKEKGSVAEAEDCYNTALRLCPTHADSLNNLANIKREQGNIEEAVRLYRKALEVFPEFAAAHSNLASVLQQQGKLQEALMHYKEAIRISPTFADAYSNMGNTLKEMQDVQGALQCYTRAIQINPAFADAHSNLASIHKDSGNIPEAIASYRTALKLKPDFPDAYCNLAHCLQIVCDWTDYDERMKKLVSIVAEQLEKNRLPSVHPHHSMLYPLSHGFRKAIAERHGNLCLDKINVLHKPPYEHPKDLKLSDGRLRVGYVSSDFGNHPTSHLMQSIPGMHNPDKFEVFCYALSPDDGTNFRVKVMAEANHFIDLSQIPCNGKAADRIHQDGIHILVNMNGYTKGARNELFALRPAPIQAMWLGYPGTSGALFMDYIITDQETSPAEVAEQYSEKLAYMPHTFFIGDHANMFPHLKKKAVIDFKSNGHIYDNRIVLNGIDLKAFLDSLPDVKIVKMKCPDGGDNPDSSNTALNMPVIPMNTIAEAVIEMINRGQIQITINGFSISNGLATTQINNKAATGEEVPRTIIVTTRSQYGLPEDAIVYCNFNQLYKIDPSTLQMWANILKRVPNSVLWLLRFPAVGEPNIQQYAQNMGLPQNRIIFSPVAPKEEHVRRGQLADVCLDTPLCNGHTTGMDVLWAGTPMVTMPGETLASRVAASQLTCLGCLELIAKSRQEYEDIAVKLGTDLEYLKKIRGKVWKQRISSPLFNTKQYTMELERLYLQMWEHYAAGNKPDHMIKPVEVTESA
In the case of B3, the binding result in test [5] was “binds”.

B4: tripartite motif family member TRIM21, endogenous in mouse macrophages (enzyme, UniProt Q62191 1-470)
chain: MSPSTTSKMSLEKMWEEVTCSICLDPMVEPMSIECGHCFCKECIFEVGKNGGSSCPECRQQFLLRNLRPNRHIANMVENLKQIAQNTKKSTQETHCMKHGEKLHLFCEEDGQALCWVCAQSGKHRDHTRVPIEEAAKVYQEKIHVVLEKLRKGKELAEKMEMDLTMQRTDWKRNIDTQKSRIHAEFALQNSLLAQEEQRQLQRLEKDQREYLRLLGKKEAELAEKNQALQELISELERRIRGSELELLQEVRIILERSGSWNLDTLDIDAPDLTSTCPVPGRKKMLRTCWVHITLDRNTANSWLIISKDRRQVRMGDTHQNVSDNKERFSNYPMVLGAQRFSSGKMYWEVDVTQKEAWDLGVCRDSVQRKGQFSLSPENGFWTIWLWQDSYEAGTSPQTTLHIQVPPCQIGIFVDYEAGVVSFYNITDHGSLIYTFSECVFAGPLRPFFNVGFNYSGGNAAPLKLCPLKM
Consider B4, for which the binding entry in test [6] and in test [2] was “binds” in each case.

B5: Myc-TRIM21 (HEK293T) (enzyme, UniProt Q62191 1-470)
chain: MSPSTTSKMSLEKMWEEVTCSICLDPMVEPMSIECGHCFCKECIFEVGKNGGSSCPECRQQFLLRNLRPNRHIANMVENLKQIAQNTKKSTQETHCMKHGEKLHLFCEEDGQALCWVCAQSGKHRDHTRVPIEEAAKVYQEKIHVVLEKLRKGKELAEKMEMDLTMQRTDWKRNIDTQKSRIHAEFALQNSLLAQEEQRQLQRLEKDQREYLRLLGKKEAELAEKNQALQELISELERRIRGSELELLQEVRIILERSGSWNLDTLDIDAPDLTSTCPVPGRKKMLRTCWVHITLDRNTANSWLIISKDRRQVRMGDTHQNVSDNKERFSNYPMVLGAQRFSSGKMYWEVDVTQKEAWDLGVCRDSVQRKGQFSLSPENGFWTIWLWQDSYEAGTSPQTTLHIQVPPCQIGIFVDYEAGVVSFYNITDHGSLIYTFSECVFAGPLRPFFNVGFNYSGGNAAPLKLCPLKM
For the molecule B5, the binding result was “no binding” with Flag-FTO (S95A) (mouse) [7] and “binds” in test [5].
